Results on 48 molecules are retold here after PubChem BioAssay AID1963576 (National Center for Advancing Translational Sciences (NCATS), 2024).

Hit rate of the full screen: of about 46,000 compounds, about 60 (0.1%) were called active. Roughly 3% stayed inconclusive and do not appear here. Calls come from the whole dose curve; as a rule, active = well fitted inhibition curve with a large enough effect; inconclusive = small, poorly fitted or top-dose-only effect; inactive = no such curve, though single readings can be large or run the other way. Some of the results follow.

The experiment in a line: Primary qHTS assay for Inhibitors of ovarian cancer metastasis using an organotypic tumor microenvironment (TME) model.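 For activity change, negative = inhibition: plate controls were DMSO wells for no effect and tomatine positive control wells for full effect.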 Note: nearly all actives have a fitted effect of over 65% in size. Particulars: SKOV3ip1-GFP adhesion/invasion on 3D omental model, fluorescence; series mostly up to 45.8 µM; activity change, negative = inhibition: at the top concentration. An outline of the steps: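 A 3D layer of primary human omental fibroblasts, mesothelial cells, fibronectin and collagen I, grown 48 hr, received SKOV3ip1-GFP cells in serum-free medium plus compounds at 0.36-46 umol/L. After 2 hr RT and 16 hr 37 C, fixed adherent GFP cells were counted; normalized to DMSO and tomatine.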
(Quantitative high-throughput screening tests each substance at several concentrations.)
Take `CC1=C(C(=O)Nc2ccc(C)cc2C)C(CC(C)C)n2nc(SCc3ccccc3C)nc2N1` (stereo not drawn): the molecule was called inactive.
For `COc1ccc(-c2nnn3c2nc(NCc2ccccc2)c2ccccc23)cc1`, the “activity change, negative = inhibition” value is inactive: 50.5%.
The same measure, in the same setting: in the case of `COc1cccc(NC(=O)c2oc3ccccc3c2NC(=O)COc2ccccc2C)c1` it was inactive: -14.1%.
With `COC(=O)c1ccccc1NC(=O)CCCn1nc(C)c2sc3ccccc3c2c1=O`, the molecule was called inactive.
Consider `COc1ccc2[nH]cc(CCNC(=O)Nc3c(C)cccc3C)c2c1`, for which the “activity change, negative = inhibition” value is inactive: -9.52%.
For `Cc1ccc(NC(=O)CSc2ncccc2C(=O)Oc2ccccc2Cl)cc1Cl`, the outcome was inactive.
On to `Cc1cc(C)n2nc(SCC(=O)Nc3ccc(O)cc3)nc2n1`, for which the “activity change, negative = inhibition” value was inactive: 29.5%.
Turning to `CCOc1ccc(-c2cc(C(=O)NCc3ccc(OCC)c(OC)c3)[nH]n2)cc1`, the “activity change, negative = inhibition” value was inactive: -5.58%.
Regarding `COc1ccc(-c2ccc(NS(=O)(=O)c3ccccc3)cc2)nn1`, the “activity change, negative = inhibition” value was inactive: -13.1%.
As for `CCc1cccc(CC)c1NC(=O)CCS(=O)(=O)c1ccc(Br)cc1`, the “activity change, negative = inhibition” value is inactive: -3.53%.
Same read-out and setting: in the case of `O=c1c2sc3ccccc3c2n(Cc2ccc(F)cc2)c(=O)n1Cc1ccccc1` it was inactive: -7.42%.
Regarding `COc1cc(-c2nc(Cn3nnc(C(=O)Nc4ccccc4C)c3C)c(C)o2)cc(OC)c1OC`, the “activity change, negative = inhibition” value was inactive: -11.3%.
`CCc1ccc(NC(=O)Cn2c(=O)n(CCCC(=O)NCc3ccccc3OC)c(=O)c3ccccc32)cc1`: the outcome was inactive.
Turning to `Cc1cc(NC(=O)CN(C)S(=O)(=O)c2ccc3c(c2)CCCC(=O)N3)ccc1Br`, the molecule was called inactive.
Consider `Cc1ccccc1-c1nc2c(c(SCc3cccc(Cl)c3)n1)Cc1c(CO)cnc(C)c1O2`, for which the “activity change, negative = inhibition” value is inactive: -3.28%.
On to `COc1cc(C)ccc1OCCSc1nc2ccc(NC(=O)c3ccc4c(c3)OCO4)cc2s1`, for which the “activity change, negative = inhibition” value is inactive: -12.3%.
Turning to `CCOC(=O)c1cc(-c2ccccc2)n(CCC(=O)Nc2ccc(OC)c(Cl)c2)c1C`, the result was inactive.
Still for that read-out and setting: in the case of `CC(=O)N1c2ccc(S(=O)(=O)N3CCCCCC3)cc2CC1C(=O)NCc1cccc(F)c1` (stereo not drawn) it was “inactive”.
`Clc1cccc(N2CCN(c3nc4ccccc4c4nc(-c5cccnc5)nn34)CC2)c1`: the “activity change, negative = inhibition” value is inactive: 11.1%.
Take `Cc1ccc(C)c(NC(=O)c2ccc(=O)n(Cc3ccc(F)cc3)c2)c1`: the outcome was inactive.
Consider `Cn1c(CNc2ccc(C(=N)N)cc2)nc2cc(C(=O)N(CCC(=O)O)c3ccccn3)ccc21`, for which the “activity change, negative = inhibition” value was inactive: 6.53% [at 23.2 µM].
For `COc1ccc(C)cc1NC(=O)c1ccc2c(c1)N(Cc1cccc(Cl)c1)C(=O)c1ccccc1S2=O` (stereo not drawn), the “activity change, negative = inhibition” value is inactive: 4.17%.
For `CNC1CCCN(c2c(F)cc3c(=O)c(C(=O)O)cn(C4CC4)c3c2OC)C1` (stereo not drawn), the “activity change, negative = inhibition” value is inactive: -7.53%.
`CCOC(=O)c1noc2ncn(CC(=O)Nc3ccc(OC)c(Cl)c3)c(=O)c12`: the “activity change, negative = inhibition” value is inactive: 40%.
Consider `CCOc1ccc(CC(=O)NCCS(=O)(=O)N2CCN(c3ccccc3OC)CC2)cc1`, for which the molecule was classed as inactive.
On the same count and under the same terms, next, `CCS(=O)(=O)N1CCc2cc(C(=O)N3CCN(c4ccccc4)CC3)ccc21`: “inactive”.
On to `Cc1ccc(S(=O)(=O)c2nc(-c3cccs3)oc2SC(C)c2ccccc2)cc1` (stereo not drawn), for which the “activity change, negative = inhibition” value was inactive: -3.01%.
In the case of `CCOC(=O)c1ccc(NC(=O)Cc2coc3cc(C)cc(C)c23)cc1`, the “activity change, negative = inhibition” value was inactive: -9.45%.
In the case of `Cc1ccc(NC(=O)Cn2c(=O)n(Cc3ccc4c(c3)OCO4)c(=O)c3ccc(C(=O)NC4CCCCC4)cc32)cc1`, the outcome was inactive.
As to `Cc1cccc(Cn2nnc3c(=O)[nH]c(C4CCN(C(=O)c5ccccc5F)CC4)nc32)c1`, the “activity change, negative = inhibition” value is inactive: 4.04%.
For `CCCC(=O)NCc1nc2cccnc2n1Cc1ccc(F)cc1`, the “activity change, negative = inhibition” value is inactive: -7.46%.
Regarding `Cc1cccc(NC(=O)CSc2nc(=O)n(CCN3CCOCC3)c3c2CCC3)c1C`, the “activity change, negative = inhibition” value was inactive: 11.3%.
Take `COc1ccc(CNC(=O)c2cnc(N3CCCC3)nc2C)cc1`: the “activity change, negative = inhibition” value was inactive: 2.23%.
`O=C(CSc1cn(CC(=O)N2CCOCC2)c2ccccc12)Nc1ccccc1C(F)(F)F`: the “activity change, negative = inhibition” value is inactive: -9.28%.
For the molecule `Cc1cc([N+](=O)[O-])ccc1NC(=O)CSc1nccn1C`, the call was inactive.
As to `CCOc1ccc(NC(=O)c2cc3c(=O)n4cccc(C)c4nc3s2)cc1`, the call was inactive.
As to `CCN(C(=O)CSc1nnc(C)n2c1cc1occc12)c1ccccc1`, the “activity change, negative = inhibition” value is inactive: -5.64%.
Same read-out and setting: in the case of `CCCCc1nn2c(=O)cc(COC(=O)c3ccccc3NC(=O)C3CCCCC3)nc2s1` it was inactive: -1.74%; in that of `COc1ccc(S(=O)(=O)NCc2cccn2Cc2cccc(C)c2)cc1OC`, inactive: 1.26%.
On the same count and under the same terms, next, `CCOC(=O)c1c(-c2ccccc2)oc2ccc(NS(=O)(=O)c3ccccc3)cc12`: inactive: 7.05%.
Take `COc1ccc2c(c1)c1c(c(=O)n(-c3cccc(Cl)c3)c(=O)n1C)n2C`: the molecule was called inactive.
Take `COc1ccc(-c2c(C)c3ccc(O)c(CN4CCN(C)CC4)c3oc2=O)cc1OC`: the “activity change, negative = inhibition” value is inactive: 5%.
For `Cc1ccccc1C(=O)Nc1nc2c(s1)CC(C(C)(C)C)CC2` (stereo not drawn), the “activity change, negative = inhibition” value was inactive: -5.38%.
With `CCOC(=O)CSc1nc2c([nH]c3ccccc32)c(=O)n1-c1ccc(OCC)cc1`, the “activity change, negative = inhibition” value was inactive: 0.119%.
Same read-out and setting: next, `COc1ccc(CSc2nc3ccncc3n2Cc2nc(-c3ccc(OC)c(OC)c3)oc2C)cc1`: inactive: 2.68%.
Turning to `COc1ccc(S(=O)(=O)c2cn(CC(=O)Nc3ccccc3)c3ccc(Cl)cc3c2=O)cc1`, the molecule was called inactive.
With `Cc1cccc2sc(N(Cc3cccnc3)C(=O)C3CCCCC3)nc12`, the “activity change, negative = inhibition” value was inactive: -24.5%.
On to `COc1cccc2cc(-c3nc(-c4cccs4)no3)c(=O)oc12`, for which the outcome was inactive.
